Assay results: the supplement of paper PMC11417369
± gives the standard deviation of the averaged measurements. Some of the results follow.

System: PfAP2-I AP2 domain 3 (GST-tagged)
Test: gcPBM binding intensity (ln(normalized median fluorescence intensity)); higher = stronger DNA binding
Outline: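 Binding intensity is defined as the maximum Masliner-normalised natural-log median intensity across replicate spots for either probe orientation. It was measured on an Agilent 4 × 180k array of primer-extended double-stranded 36-bp intergenic genomic probes and negative controls, to which GST-tagged P. falciparum DNA-binding domains made in E. coli were applied for 1 h in 1× PBS with 1% milk, 0.2 mg/ml BSA, 0.5% salmon testes DNA and 0.03% Triton X-100. Detection was by Alexa488 anti-GST antibody and scanning at 488 nm.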

Sequence | gcPBM binding intensity (ln)
TATATATTTATTTATAGTACACTATTTATGAAAACC [XGTACX_site3062] | 8.24 ± 0.18
CATTATTATTAACATACACACGTGTTATATACCCCC [CACACA_site9365] | 9.405 ± 0.092
AAATTCACAATGTTTGGTACACATAAAAAAAAAAGA [XGTACX_site7109] | 8.01 ± 0.61
AACATACGACAATACGCACACATATCTGTACATATT [CACACA_site5115] | 8.39 ± 0.36
TTTATATATTTTGTCGTGCACATTTGGAAAATTACA [GTGCAC_site9776] | 10.8 ± 0.16
AAAAATTTTTTTTTTTTTTTAAATAATAAAAATGAA [CACACA_negctrl_site1435] | 7.465 ± 0.035
TATTATTATTTTATGGTGCAAAAAAAAAAAAAAAAA | 10.9 ± 0.61
AAAAAGTTATTATGAACACACATTTATTATAGTCAT [CACACA_site6838] | 7.45 ± 0.68
CATATAAATATTTGTGCACACAATTATTAATAATTA [CACACA_site3884] | 11.3 ± 0.23
ATTTGAAATTGGTAGACACACAATAAAATATCAAAA [CACACA_site447] | 7.64 ± 0.62
TTAAACTTGAGACACACACACACACGGATATAAAAA [CACACA_site6495] | 8.12 ± 0.62
CTTTTATTCAAAAGATGTACTTAAATATATATCTAA [XGTACX_site4326] | 7.58 ± 0.18
TGCAGTCTGGAGAAACGTACACAGTATCTGGTAACA [XGTACX_site2014] | 7.79 ± 0.36
ATGTGTATAATTAAATGTACATATATATATATATAT [XGTACX_site829] | 9.57 ± 0.35
ATATATATCGGACACACACACATGTTTTAAAACTAT [CACACA_site4218] | 8.3 ± 0.54
TATAATAATCTAATCTGTAGTTTTTTTTTTTTTTTT [CACACA_negctrl_site1206] | 8.31 ± 0.65
GGCTTTTTTTAATATGCACACATATATTTTATATAT [CACACA_site8647] | 9.32 ± 0.2
AAAAAAAAACAGAAAACACACAAATTATCTTATAAT [CACACA_site4326] | 7.5 ± 0.5
TGTATATATATCTCAGTGCATTGCAAATTAAAAATT [GTGCAC_site9646] | 9.74 ± 0.27
ATACTCACGTGACACACACACAATATAAATAAATAT [CACACA_site7862] | 8.1 ± 0.23
AATAAATAAATAAATAAATATATATATATATATATA [GTGCAC_negctrl_site224] | 9.38 ± 0.47
TTATATTAAAAAAGATGTACGTTTAGGAAAAATATA [XGTACX_site7456] | 7.96 ± 0.43
TTAGATTTAAATATCATACACACTTTATATATAATA [CACACA_site959] | 7.56 ± 0.57

Sequence | gcPBM binding intensity (ln)
ATAAAAATAAACATACGTACTTACACGAATATACAT [XGTACX_site5989] | 7.83 ± 0.52
CTTGAAAAAATAAAAACACACAATGTGTTTTTGAAT [CACACA_site3283] | 7.42 ± 0.68
ATATTACTATATTATTGTACGTTAAAAAAAAAAAAT [XGTACX_site8734] | 7.87 ± 0.42
TTTCTAAATAATTATAATGAATCTGCAAACAAGCAT [XGTACX_negctrl_site391] | 7.45 ± 0.54
ATTTATATCTCCATATGTTCAAAACTTTCACAAATA [TGCATGCA_negctrl_site108] | 7.78 ± 0.63
TATTAACAAATTTATGTGCACTGAGGACAAATATAT | 10.96 ± 0.085
AAAATAAGTAATTACTAATATATAAATTAATAATTA [CACACA_negctrl_site1602] | 7.12 ± 0.47
AATATAAATTAATTTACACACTAAAAAATATATATA [CACACA_site3778] | 7.81 ± 0.58
AAAGAAAAAAAAATTACACACATATATTATATATAT [CACACA_site3211] | 8.34 ± 0.47
AAATAGAAGAAATATGCACACATACATTGAAATGTT [CACACA_site7996] | 8.56 ± 0.54
TTTTCTTCATAAATGCTGCACTGGTTTAAGCATGAT | 9.09 ± 0.042
TTTATTAATAAACACACACACACACCCAAAATAAAA [CACACA_site7966] | 8.375 ± 0.007
CCTTAATATTTTTGAAGTACATATTTATTTTACAAG [XGTACX_site3049] | 7.92 ± 0.23
TTAATATGAAATAAATGTACATAATACATAATAAAA [XGTACX_site6194] | 7.75 ± 0.52
AATTGAAAAATATATAAGAAGAAATATATATATGTT [GTGCAC_negctrl_site97] | 7.64 ± 0.62
GTTTTTAGTATTTTTTGTACTTAATACATAGCCTTA [XGTACX_site7318] | 7.75 ± 0.57
AACACGCGCGGACACACACACACACCCACATATATA [CACACA_site5252] | 8.25 ± 0.48
TTTATGCATAGAGAAACATGCAAGAAAGATGCAAAA [TGCATGCA_site726] | 9.74 ± 1
TTCCTTATTATTATTTTACACACGTCCTAATAAGAG [CACACA_site8364] | 8.1 ± 0.61
GCTTGTACATTTTTAAAAAATGACTTCGAAAGGAAT [CACACA_negctrl_site453] | 8.07 ± 0.41
ATTATGTATACATAAACACACATATTTATAAAAAAA [CACACA_site6261] | 7.88 ± 0.32
ATATATTTATATATATGTACATATTATGTTAAGAAA [XGTACX_site1111] | 7.87 ± 0.3
TATGTATTCATATGTTGTACATTATATATAATAAGT [XGTACX_site6589] | 8.1 ± 0.36

Sequence | gcPBM binding intensity (ln)
AGCACACAAAAAAAAAAAAAAAAAAAAAAAGGAATG [GTGCAC_negctrl_site73] | 7.83 ± 0.59
AAATCAGAACCTATTTGTACATATACAAAAATGATT [XGTACX_site2421] | 7.57 ± 0.55
TTTTAATTAGCTAGACGTACAATAATATACAAATAT [XGTACX_site6068] | 7.95 ± 0.37
CATATGTAGGGAACAATATAATATGCTTTGAATATG [GTGCAC_negctrl_site524] | 7.79 ± 0.81
ATTTTTTTAAGATAAGAAAAATAAAGTGTGGATATT [XGTACX_negctrl_site476] | 8 ± 0.52
CAAACCCACGGACACACACACACAAAAATGATTAAA [CACACA_site5365] | 7.99 ± 0.2
TTTATTTATTTATGTGGTACTTCAAAAATATATACT [XGTACX_site355] | 7.98 ± 0.42
GGATACGCTTTTGTACCACTCCCCCTTTTGGGAATA [CACACA_negctrl_site1363] | 8.43 ± 0.3
ATCATATAAACATATTGTACTTAAATACATAATATT [XGTACX_site3800] | 7.63 ± 0.35
ATATATATATATAGTGCACACTTAAGAATATAAAGA [CACACA_site4771] | 11.5 ± 0.27
AACTATTACTTTCTTTCACACATTTTTTTTTTTTTT [CACACA_site5355] | 7.89 ± 0.75
TGTTATATAATTTAGCGTACAGGTTATAGGACGGAT [XGTACX_site8823] | 8.5 ± 0.35
AACTCTTAGAATGACGGTACAGTATAATAGGTGAAC [XGTACX_site7163] | 7.92 ± 0.92
ATATAATGAATTATTAGAAAATAAAATGAATAAAGT [CACACA_negctrl_site690] | 8.12 ± 0.6
GCACAACATATATTATCACACACATATATATATATA [CACACA_site8619] | 9.54 ± 0.29
TATAATGAACATATGTGTACATATATTTTTTAAATT [XGTACX_site8736] | 7.56 ± 0.38
AAAAAACAAAAAAAAAAAAAAATAATACAATATAAT [CACACA_negctrl_site1630] | 7.32 ± 0.42
ACCATATAAATAAACACACACACACCGATATATATA [CACACA_site5310] | 8.18 ± 0.71
CAAAAGAATATATGTAGTACATGTTGTAGATAATAT [XGTACX_site1044] | 8.26 ± 0.49
CGCGAAGTAGCATTCACACACAGCAAAATATAAATA [CACACA_site7608] | 7.68 ± 0.62
TCAGATATATAGAATACACACATGGATATAAGAAAT [CACACA_site7831] | 7.97 ± 0.64
ATATTTTGTAACTATACACACATATATATATTATAA [CACACA_site3062] | 7.88 ± 0.56
TTTTTGTAATATTATGATGTCATATATATATATATA [XGTACX_negctrl_site618] | 9.08 ± 0.83

Sequence | gcPBM binding intensity (ln)
AAATTGGGTACAAATACACACACATATATATATTAA [CACACA_site8745] | 7.92 ± 0.27
TTTATACAATAAAATGCATGCAAGTATCTATTTTAT [TGCATGCA_site210] | 7.75 ± 0.69
ATAGATCCTAATGTTGTGCACATGTAAATTAATATA | 10.1 ± 0.25
TTTTTTTTTTTTTTTTGTACGAATAAACAAGTTATT [XGTACX_site5473] | 7.79 ± 0.37
TGTATTAAAAATTTGGTGCAACTTTTACATAATAAT | 9.49 ± 0.18
ATATATATATATATATGTACATATTTTATTTAATTT [XGTACX_site1807] | 9.48 ± 0.47
AAAAAAAAAAATAAATGTACAAAATAATGGGGAACA [XGTACX_site8723] | 8.01 ± 0.78
GTGAATGATTTAAGTACACACCGGTATTTATTCAAA [CACACA_site4950] | 8.03 ± 0.22
AAAAAAAAAAAATACACACACACATATTTATTTATA [CACACA_site6483] | 7.6 ± 0.38
ATATATTTAAAAAAATGTACAAATCATAAATGCAAG [XGTACX_site4230] | 7.87 ± 0.47
AGAAATTAAATGTAAGCACACATAAATTATACACAT [CACACA_site9098] | 8.12 ± 0.55
AAAAAATTATACCAGTGTACTTTTTTGGTTTTTCTT [XGTACX_site2601] | 7.86 ± 0.25
TATAATGTTGATGATAGTACGTATGAGTTCAAAAAA [XGTACX_site3651] | 7.99 ± 0.54
AAAAGAATTAATTTATGTACTAATTTCAAGAAATAA [XGTACX_site3241] | 7.46 ± 0.33
CTCGATCAAGTGTATGCATGTACCAGTGAACAAAAA [TGCATGCA_site635] | 8.1 ± 0.62
TCCTTACACACACTTTTTTTTTTTTTTTTTTCTACA [GTGCAC_negctrl_site263] | 7.96 ± 0.59
ATATATTATCAACTTACACACAGAAAACTATAATAA [CACACA_site6275] | 7.75 ± 0.59
CTTTTTCCTTTATAAAGTACTTAAAATATTTAGATA [XGTACX_site4259] | 7.93 ± 0.41
TATATATTTATTTATTGTACACTCTTTAAGAATACA [XGTACX_site2569] | 7.91 ± 0.26
TATATATATATATATATATATATATATGTGTATGTA [TGCATGCA_negctrl_site255] | 9.61 ± 0.49
